{"source": "the RNAGym collection of RNA variant scans (doi:10.1093/nar/gkz1192)", "parents": {"B1": {"name": "CPEB3 Ribozyme (parent)", "chain": "UAACAGGGGGCCACAGCAGAAGCGUUCACGUCGCAGCCCCUGUCAGAUUCUGGUGAAUCUGCGAAUUCUGCUGUAUAUCUC"}}, "note": "Read counts are not given, so values of variants with three or more changes are uncertain.", "data": [{"variants_of": "B1", "assay": "self-cleavage, relative activity (ratio to wild type); higher = more cleavage; in vitro, sequencing", "method_in_brief": "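For each CPEB3 ribozyme variant, relative activity is its cleaved/total read fraction divided by the unmutated ribozyme's. Barcoded error-prone PCR libraries were transcribed by T7 RNA polymerase (5 hours, 37°C) and held in DNase I for 15 min before an EDTA stop, with cleavage occurring throughout. Template-switching reverse transcription and Illumina sequencing were used to read the RNAs. A 5-read minimum applied, and results are the mean of three batches.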", "values": [{"variant": "UAACAGGGGGCCACAGCAGAAGCGUUCACGUCGCAGCCCCUGUCAGAUCCUGGCGUAUCUGCGAAUUCUGCUGUAUAUCUC", "self-cleavage": 0.3}, {"variant": "UAACAGGGGGCCACAGCAGAAGCGUUCACGUCGCAGCCCCUGUCAGAUUAUGGUGAAUCUGAGAAUUCGGCUGUAUAUCUC", "self-cleavage": 0.16}, {"variant": "UAACAGGGGGCCACAGCAGAAGCGUUCACGUCGCAGCCCCUGUCAGAUUAUGGUGGAUCUGCGAAUUCUGCUGUAUUUCUC", "self-cleavage": 0.66}, {"variant": "UAACAGGGGGCCACAGCAGAAGCGUUCACGUCGCAGCCCCUGUCAGAUUAUGGUGUAUCUGCGAACUCUGCUGUAUAUCUC", "self-cleavage": 0.11}, {"variant": "UAACAGGGGGCCACAGCAGAAGCGUUCACGUCGCAGCCCCUGUCAGAUCCUGGUGAAUCCGCGAACUCUGCUGUAUAUCUC", "self-cleavage": 0.13}, {"variant": "UAACAGGGGGCCACAGCAGAAGCGUUCACGUCGCAGCCCCUGUCAGAUCCUGGUGAAUCCGCGAAUUCUGCUGUUUAUCUC", "self-cleavage": 0.61}, {"variant": "UAACAGGGGGCCACAGCAGAAGCGUUCACGUCGCAGCCCCUGUCAGAUCCUGGUGAAUCUGCGAAUUCAGCUGUAUACCUC", "self-cleavage": 0.15}, {"variant": "UAACAGGGGGCCACAGCAGAAGCGUUCACGUCGCAGCCCCUGUCAGAUUAUGGUGAAUCUGCGAAUUCAGCUGUAUUUCUC", "self-cleavage": 0.19}, {"variant": "UAACAGGGGGCCACAGCAGAAGCGUUCACGUCGCAGCCCCUGUCAGAUCCUGGAGAAUCUGCGAACCCUGCUGUAUAUCUC", "self-cleavage": 0.41}, {"variant": "UAACAGGGGGCCACAGCAGAAGCGUUCACGUCGCAGCCCCUGUCAGAUCCUGGUGAAUCUGCGAAUCCAGCUGUAUAUCUC", "self-cleavage": 0.21}, {"variant": "UAACAGGGGGCCACAGCAGAAGCGUUCACGUCGCAGCCCCUGUCAGAUUUAGGCGAAUCUGCGAAUCCUGCUGUAUAUCUC", "self-cleavage": 0.22}, {"variant": "UAACAGGGGGCCACAGCAGAAGCGUUCACGUCGCAGCCCCUGUCAGAUCCUGGUGAAUCUGCGAAUCCCGCUGUCUAUCUC", "self-cleavage": 0.14}, {"variant": "UAACAGGGGGCCACAGCAGAAGCGUUCACGUCGCAGCCCCUGUCAGAUCCUGGUGAAUCCGCGAAUUCUGCUGAAUAUCUC", "self-cleavage": 0.16}, {"variant": "UAACAGGGGGCCACAGCAGAAGCGUUCACGUCGCAGCCCCUGUCAGAUUUUGGUGAAUCUGCACAUUCUGCUGUAUAUCUC", "self-cleavage": 0.29}, {"variant": "UAACAGGGGGCCACAGCAGAAGCGUUCACGUCGCAGCCCCUGUCAGAUUAUGGUGAAUCUGCGAAUUCUGCUGUAAAUCCC", "self-cleavage": 0.89}, {"variant": "UAACAGGGGGCCACAGCAGAAGCGUUCACGUCGCAGCCCCUGUCAGAUCCUGGUGAAUCUGCGAAUUCCGCCGUAUAUCUC", "self-cleavage": 0.25}, {"variant": "UAACAGGGGGCCACAGCAGAAGCGUUCACGUCGCAGCCCCUGUCAGAUUAUGGUGAAUCUGCGAGUUCAGCUGUAUAUCUC", "self-cleavage": 0.14}, {"variant": "UAACAGGGGGCCACAGCAGAAGCGUUCACGUCGCAGCCCCUGUCAGAUUAUGGUGAAACUGCGAAUUCCGCUGUAUAUCUC", "self-cleavage": 0.18}, {"variant": "UAACAGGGGGCCACAGCAGAAGCGUUCACGUCGCAGCCCCUGUCAGAUCCUGGAGAAUCUGCGAAUCCUGCUGUAUAUCUC", "self-cleavage": 0.4}, {"variant": "UAACAGGGGGCCACAGCAGAAGCGUUCACGUCGCAGCCCCUGUCAGAUGCUGGUGUAUCUGCGAAUUCUGCUGCAUAUCUC", "self-cleavage": 0.84}, {"variant": "UAACAGGGGGCCACAGCAGAAGCGUUCACGUCGCAGCCCCUGUCAGAUCCUGGCGGAUCUGCGUGUUCUGCUGUAUAUCUC", "self-cleavage": 0.13}, {"variant": "UAACAGGGGGCCACAGCAGAAGCGUUCACGUCGCAGCCCCUGUCAGAUUAUGGUGGAUCUGCGAGUUCUGCUGUAUAUCUC", "self-cleavage": 0.42}, {"variant": "UAACAGGGGGCCACAGCAGAAGCGUUCACGUCGCAGCCCCUGUCAGAUUAUGGUGGAUCUGCGAAUUCUACUGUAUAACUC", "self-cleavage": 0.11}, {"variant": "UAACAGGGGGCCACAGCAGAAGCGUUCACGUCGCAGCCCCUGUCAGAUUUAGGUGAAUCUGCGAAUUCCGCUGUAUAUCUC", "self-cleavage": 0.52}, {"variant": "UAACAGGGGGCCACAGCAGAAGCGUUCACGUCGCAGCCCCUGUCAGAUCCUGGUGAAUCUGCGAAUCCUGCUGCAUAUCUC", "self-cleavage": 0.17}, {"variant": "UAACAGGGGGCCACAGCAGAAGCGUUCACGUCGCAGCCCCUGUCAGAUCCUGGAGAAUCUGCGAAUUCUGCCGUAUACCUC", "self-cleavage": 0.36}, {"variant": "UAACAGGGGGCCACAGCAGAAGCGUUCACGUCGCAGCCCCUGUCAGAUCCUGGUGAAUCUGCGAAUUCUGCAGUACAUCUC", "self-cleavage": 0.13}, {"variant": "UAACAGGGGGCCACAGCAGAAGCGUUCACGUCGCAGCCCCUGUCAGAUCCUGGUGAAUCAGCGAAUUCUGCAGUAUAUCUC", "self-cleavage": 0.13}, {"variant": "UAACAGGGGGCCACAGCAGAAGCGUUCACGUCGCAGCCCCUGUCAGAUCCUGGUGAAUCUGCGAAUCCUGCAGUAUAUCUC", "self-cleavage": 0.12}, {"variant": "UAACAGGGGGCCACAGCAGAAGCGUUCACGUCGCAGCCCCUGUCAGAUCCUGGUGAAACUGCGGAUUCUGCUGUAUAUCUC", "self-cleavage": 0.13}, {"variant": "UAACAGGGGGCCACAGCAGAAGCGUUCACGUCGCAGCCCCUGUCAGAUCCUGGUGAAUCUGCGAAUUCUGCAGUAUACCUC", "self-cleavage": 0.26}, {"variant": "UAACAGGGGGCCACAGCAGAAGCGUUCACGUCGCAGCCCCUGUCAGAUUAAGGUGAAUCUGCAAUUUCAGCAGUAUAUCUC", "self-cleavage": 0.42}, {"variant": "UAACAGGGGGCCACAGCAGAAGCGUUCACGUCGCAGCCCCUGUCAGAUCCUGGCGAAACUGCGAAUUCUGCAGUAUAUCUC", "self-cleavage": 0.13}, {"variant": "UAACAGGGGGCCACAGCAGAAGCGUUCACGUCGCAGCCCCUGUCAGAUCCUGGUGAAUCUGCGAAUACUGCUGUAUAUCCC", "self-cleavage": 0.08}]}]}
